{"source": "PubChem BioAssay AID485344", "about": "(National Center for Advancing Translational Sciences (NCATS), 2010)", "note": "Screen size: about 340,000 compounds; about 6,900 (2%) were called active. Rule as the data show it: active = inhibition above about 30%; inactive = below that, where a call was filed. Only a part is listed here, and it is no random draw. Where no call is shown, the source filed none.", "data": [{"target": "D(2) dopamine receptor (Homo sapiens) (UniProt P14416)", "sequence (P14416 whole entry, looked up)": "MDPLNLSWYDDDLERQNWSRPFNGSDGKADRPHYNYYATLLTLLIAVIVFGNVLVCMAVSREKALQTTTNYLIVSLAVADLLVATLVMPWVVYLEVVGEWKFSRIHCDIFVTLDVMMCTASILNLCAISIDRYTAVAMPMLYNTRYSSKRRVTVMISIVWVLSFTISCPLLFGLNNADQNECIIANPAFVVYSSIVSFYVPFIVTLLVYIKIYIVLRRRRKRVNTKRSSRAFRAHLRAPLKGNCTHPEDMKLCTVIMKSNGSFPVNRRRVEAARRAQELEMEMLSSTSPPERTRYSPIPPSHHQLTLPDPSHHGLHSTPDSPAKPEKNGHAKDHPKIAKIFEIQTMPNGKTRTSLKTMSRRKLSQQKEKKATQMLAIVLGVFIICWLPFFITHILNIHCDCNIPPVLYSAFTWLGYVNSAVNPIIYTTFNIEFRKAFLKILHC", "assay": "HTS Assay for Allosteric Antagonists of the Human D2 Dopamine Receptor: Primary Screen for Antagonists; also: 0% is about no effect", "conditions": "HEK293 TREx D2 cells, calcium flux, dopamine EC80; at 10 µM; stronger effect = higher value", "method_in_brief": "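Calcium mobilization kinetics were recorded at 1 s intervals in tetracycline-induced HEK293 T-REx D2 cells, first for 180 s after compound addition and then 180 s after EC80 dopamine.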", "values": [{"molecule": "O=C(Nc1cccc(C(F)(F)F)c1)c1cc(S(=O)(=O)N2CCCC2)c[nH]1", "inhibition": "17.4%"}, {"molecule": "COc1ccccc1-c1noc(-c2ccc(NCc3ccco3)c([N+](=O)[O-])c2)n1", "inhibition": "13.4%"}, {"molecule": "COc1ccc(NC(=O)Cn2nnc(C(=O)NCc3ccc4c(c3)OCO4)c2N)cc1", "inhibition": "7.64%"}, {"molecule": "Cn1c(C(=O)N2CCN(Cc3ccc4c(c3)OCO4)CC2)cc2sccc21", "inhibition": "active: 99.7%"}, {"molecule": "Cc1cccc(N2CCN(C(=O)c3ccc4c(Cl)c5c(nc4c3)CCCC5)CC2C)c1", "note": "(configuration not stated)", "inhibition": "2.61%"}, {"molecule": "CCCc1nnc(NC(=O)Cc2coc3ccc(C(C)C)cc23)s1", "inhibition": "-12.3%"}, {"molecule": "O=C(CSc1oc(-c2ccccc2)nc1S(=O)(=O)c1ccc(Cl)cc1)NC1CCCCC1", "inhibition": "2.22%"}, {"molecule": "COc1ccc(-n2nnc(-c3nsc(NC(=O)c4ccc(C)c(C)c4)n3)c2C)cc1Cl", "inhibition": "-2.06%"}, {"molecule": "CC(C)COC(=O)Cn1nnc2sc(-c3ccccc3)cc2c1=O", "inhibition": "14.4%"}, {"molecule": "COCCCNC(=O)CSc1nc2cc3c(cc2c(=O)n1CCCCCC(=O)NCc1ccc(OC)cc1)OCO3", "inhibition": "3.18%"}, {"molecule": "Cc1cc(C)c(NS(=O)(=O)c2cc(-c3onc(C)c3C)ccc2C)c(C)c1", "inhibition": "3.39%"}, {"molecule": "Cc1ccc(NC(=O)c2cnc(SCC(=O)N3CCOCC3)n(C)c2=O)cc1C", "inhibition": "0.681%"}, {"molecule": "CC1CCN(C(=O)c2ccc3c(c2)N(Cc2ccccc2)C(=O)c2ccccc2S3(=O)=O)CC1", "inhibition": "-15.2%"}, {"molecule": "O=C(CN1CCCN(S(=O)(=O)c2ccc(Br)cc2)CC1)Nc1cccc(C(F)(F)F)c1", "inhibition": "9.88%"}, {"molecule": "CN(C(=O)CSc1nc(C2CCCC2)nc2c1c(=O)n(C)c(=O)n2C)c1ccccc1", "inhibition": "-14.5%"}, {"molecule": "CCN1CCCC1CNC(=O)c1ccc(N2CCOCC2)c(NS(=O)(=O)c2ccc(OC)cc2)c1", "note": "(configuration not stated)", "inhibition": "active: 32.8%"}, {"molecule": "CC1CCN(C(=O)CSc2nnc(-c3ccccc3)o2)CC1", "inhibition": "1.52%"}, {"molecule": "COc1ccc(NC(=O)Cn2c(=O)c3cc(Cl)ccc3n3nncc23)cc1", "inhibition": "0.63%"}, {"molecule": "CCOc1ccc(C(=O)c2cn(CC(=O)Nc3ccc4c(c3)OCCO4)c3ccc(F)cc3c2=O)cc1", "inhibition": "-16.5%"}, {"molecule": "CC(C)C(=O)Nc1nnc(Cc2ccccc2)s1", "inhibition": "active: 30.3%"}, {"molecule": "COC(=O)CN1C(=O)CSc2ccc(S(=O)(=O)Nc3ccc(C(C)=O)cc3)cc21", "inhibition": "5.28%"}, {"molecule": "CCOC(=O)c1ccc(NC(=O)C(=O)NCCc2ccc(OC)cc2)cc1", "inhibition": "2.94%"}, {"molecule": "COc1ccc2oc(=O)c(C(=O)N3CCN(c4cc(Cl)ccc4Cl)CC3)cc2c1", "inhibition": "2.03%"}, {"molecule": "Cc1ccc(C)c(NC(=O)Cn2c(-c3nonc3N)nc3ccccc32)c1", "inhibition": "16.1%"}, {"molecule": "COc1ccccc1N1CCN(C(=O)c2cnn(C(C)(C)C)c2C2CCN(C(=O)OC(C)(C)C)CC2)CC1", "inhibition": "-7.13%"}, {"molecule": "CCCC(=O)Nc1cccc(-c2nc3ncccc3o2)c1", "inhibition": "10.9%"}, {"molecule": "COc1cc(Cl)c(C)cc1NC(=O)c1nn(-c2ccc(C)cc2)c(=O)n(C)c1=O", "inhibition": "-7.55%"}, {"molecule": "CCOc1ccc(S(=O)(=O)N(C(C)=O)c2ccc3oc(C)c(C(=O)OC)c3c2)cc1", "inhibition": "-17.9%"}, {"molecule": "Cc1ccc(CSc2nc3ccncc3n2Cc2nc(-c3ccc(Cl)cc3)oc2C)cc1", "inhibition": "4.36%"}, {"molecule": "CCOc1ccc(N2CC(NC(=O)c3cc4ccccc4o3)CC2=O)cc1", "note": "(configuration not stated)", "inhibition": "-13.6%"}, {"molecule": "CCCOC(=O)c1c(NC(=O)c2cc3nc(-c4ccc(OC)cc4)cc(C(F)(F)F)n3n2)sc2c1CCCC2", "inhibition": "4.74%"}, {"molecule": "COc1ccccc1CNC(=O)CCCN1C(=O)CCn2nc(-c3cn(C)c4ccccc34)cc21", "inhibition": "4.9%"}, {"molecule": "COc1ccccc1NCc1nnc2n1CCCCC2", "inhibition": "9.07%"}, {"molecule": "Cc1ccc2c(c1)N(CC(=O)NCCCN1CCCCC1)C(=O)c1cccnc1O2", "inhibition": "-19.8%"}, {"molecule": "COCCn1c(C)cc(/C=C2/SC(=O)N(CC(=O)N3CCCC3)C2=O)c1C", "inhibition": "active: 34.4%"}, {"molecule": "Fc1ccc(C(c2nnc(-c3ccccc3)o2)N2CCN(c3ccccc3)CC2)c(Cl)c1", "note": "(configuration not stated)", "inhibition": "-3.97%"}, {"molecule": "CC(C)C(=O)Nc1c(C(=O)N2CCN(c3ccccc3F)CC2)oc2ccccc12", "inhibition": "10.2%"}, {"molecule": "O=C(Nc1ccccc1N1CCOCC1)c1cccc(NS(=O)(=O)c2ccc(F)c(F)c2)c1", "inhibition": "active: 47.7%"}, {"molecule": "Cc1ccc(-c2nc3sc(CCNC(=O)c4ccco4)c(C)n3n2)cc1", "inhibition": "-19.1%"}, {"molecule": "Cc1ccc(C(=O)Nc2cc3cc(Cl)ccc3oc2=O)cc1", "inhibition": "3.26%"}, {"molecule": "Cc1ccc(-c2nc(CCNC(=O)C(=O)Nc3ccc(F)cc3F)cs2)cc1", "inhibition": "5.59%"}, {"molecule": "Cc1nc2nncn2c(Nc2ccc(F)cc2)c1C", "inhibition": "8.9%"}, {"molecule": "COc1ccc(Cl)cc1NC(=O)c1cc2ccccn2n1", "inhibition": "4.86%"}, {"molecule": "CCC(=O)N1CCc2cc(S(=O)(=O)NCCC(=O)NCc3ccc(OC)cc3)ccc21", "inhibition": "0.11%"}, {"molecule": "COc1cccc(-n2c(=O)c3sccc3n(Cc3cc(=O)n4cc(Cl)ccc4n3)c2=O)c1", "inhibition": "-21.4%"}, {"molecule": "O=C(CCN1C(=O)S/C(=C\\c2ccccc2)C1=O)N1CCCCC1", "inhibition": "active: 35%"}, {"molecule": "CC(C)c1ccc(N2C(=O)CSC23C(=O)N(Cc2ccccc2F)c2ccccc23)cc1", "note": "(configuration not stated)", "inhibition": "-9.41%"}, {"molecule": "Cc1ccc(NC(=O)N2CCC(CN3CCCCCC3)CC2)c(Cl)c1", "inhibition": "2.46%"}, {"molecule": "Cc1nc(-c2ccc(S(=O)(=O)Nc3ccc(OC(F)(F)F)cc3)cc2)co1", "inhibition": "9.53%"}, {"molecule": "CCCNC(=O)c1c(NC(=O)c2ccccc2F)sc2c1CCCCC2", "inhibition": "-2.5%"}, {"molecule": "Cc1cccc(C(=O)OCc2cc(=O)n3nc(C4CC4)sc3n2)c1", "inhibition": "5.64%"}, {"molecule": "CC(C)Oc1ccc(CNS(=O)(=O)c2csc(C(N)=O)c2)cc1", "inhibition": "0.126%"}, {"molecule": "CCOc1ccccc1NC(=O)CCc1nc(-c2cccc(C)c2)no1", "inhibition": "-10.9%"}, {"molecule": "O=C1c2ccccc2C(=O)C1(c1ccccc1)N1CCN(c2cccc(C(F)(F)F)c2)CC1", "inhibition": "11.1%"}, {"molecule": "COc1ccc(-c2nc(C)c(CCNC(=O)c3cccs3)s2)cc1", "inhibition": "9.93%"}, {"molecule": "Cc1ccccc1-c1nnc(SCC(=O)N2CCCc3ccccc32)o1", "inhibition": "2.98%"}, {"molecule": "CCCS(=O)(=O)N1CCCC(C(=O)NCCCN2CCN(c3cccc(Cl)c3)CC2)C1", "note": "(configuration not stated)", "inhibition": "active: 51.2%"}, {"molecule": "Cc1cc2nc(-c3cccc(NC(=O)COc4ccc(C(C)C)cc4)c3)oc2cc1C", "inhibition": "10.4%"}, {"molecule": "Cc1ccc(N(C)S(=O)(=O)c2c(-c3ccccc3)csc2C(=O)O)cc1", "inhibition": "-12.1%"}, {"molecule": "c1ccc(N2CCN(Cc3cn4ccccc4n3)CC2)cc1", "inhibition": "active: 36.6%"}, {"molecule": "COc1ccc(N2CCN(C(=O)c3c(C)oc4nc(C)nc(N5CCCC5)c34)CC2)cc1", "inhibition": "-0.34%"}, {"molecule": "Cc1ccc(C)c2sc(N3CCN(C(=O)c4ccco4)CC3)nc12", "inhibition": "1.15%"}, {"molecule": "Cc1ccc(NC(=O)Cn2ncc3c4ccccc4n(Cc4ccccc4)c3c2=O)cc1Cl", "inhibition": "-3.29%"}, {"molecule": "Cc1cn2c(=O)c(S(=O)(=O)NC(C)c3ccccc3)c(C)nc2s1", "note": "(configuration not stated)", "inhibition": "-0.41%"}, {"molecule": "CN(C)C(=O)c1cc(C(=O)Cc2ccccc2)c[nH]1", "inhibition": "active: 37.3%"}, {"molecule": "CCOc1ccc(NC(=O)c2ccc3c(c2)c(C)c(C)n3Cc2ccc(F)cc2)cc1", "inhibition": "9.44%"}, {"molecule": "CC(=O)OC[C@H]1O[C@H](CCO/N=C(\\C)CCN2CCCc3nc(C)c(C)cc32)C=C[C@@H]1OC(C)=O", "inhibition": "active: 78.2%"}, {"molecule": "Cc1ccc(NC(=O)c2cc(=O)n(Cc3ccccc3)c(=O)[nH]2)cc1C", "inhibition": "active: 33.7%"}, {"molecule": "CC(=O)c1cccc(NC(=O)CN2C(=O)CN(C)C(=O)c3ccccc32)c1", "inhibition": "3.06%"}, {"molecule": "Cc1cc(C)cc(N(C)S(=O)(=O)c2nnc(NC(=O)COc3ccc(Cl)cc3)s2)c1", "inhibition": "4.68%"}, {"molecule": "Cn1c(=O)c2c(nc(SCC(=O)Nc3ccc(F)cc3)n2Cc2ccc(Cl)cc2)n(C)c1=O", "inhibition": "-1.49%"}, {"molecule": "CCOc1ccc(Cn2c(CNS(=O)(=O)c3cccs3)nc3cccnc32)cc1", "inhibition": "-5.82%"}, {"molecule": "Cc1cccc(Cn2c(-c3cccs3)nc3ccccc32)c1", "inhibition": "2.85%"}, {"molecule": "Cc1cccn2c(=O)c3cc(C#N)c(=O)n(Cc4cccnc4)c3nc12", "inhibition": "active: 40.6%"}, {"molecule": "NC(=O)Cn1c(=O)n(-c2ccc(F)c(Cl)c2)c(=O)c2sc3ccccc3c21", "inhibition": "-3.72%"}, {"molecule": "Cc1ccc(N2CCN(c3cc(C)nc4c(-c5ccc(Cl)cc5)c(C)nn34)CC2C)cc1", "note": "(configuration not stated)", "inhibition": "1.47%"}, {"molecule": "CCc1nc(SCc2cc(=O)c3cc(F)ccc3[nH]2)n[nH]1", "inhibition": "-10.2%"}, {"molecule": "OC1(c2cccc(F)c2)CCN(Cc2ccncc2)CC1", "inhibition": "active: 55.8%"}, {"molecule": "CCn1ccc2cc(S(=O)(=O)N3CCCN(C(=O)Nc4ccc(C)cc4)CC3)ccc21", "inhibition": "3.87%"}, {"molecule": "Cc1ccc(S(=O)(=O)c2nnn3c2nc(N2CCCCC2)c2sccc23)cc1", "inhibition": "-26.8%"}, {"molecule": "CCN(CC)S(=O)(=O)c1ccc(NC(=O)[C@H](CCSC)N2Cc3ccccc3C2=O)cc1", "inhibition": "10.9%"}, {"molecule": "COc1ccc(NS(=O)(=O)c2ccc3c(c2)oc(=O)n3C)cc1Cl", "inhibition": "-4.16%"}, {"molecule": "COc1cccc(NC(=O)c2nnn(Cc3cccc(C(F)(F)F)c3)c2N)c1", "inhibition": "0.919%"}, {"molecule": "Cc1cccc(CN2C(=O)c3ccccc3S(=O)(=O)c3ccc(C(=O)N4CCCC4)cc32)c1", "inhibition": "5.92%"}, {"molecule": "COc1ccc(OC)c(S(=O)(=O)Nc2ccc3[nH]c(=O)[nH]c3c2)c1", "inhibition": "-7.06%"}, {"molecule": "CCc1ccc(OCC(=O)Nc2c(C(=O)c3ccccc3)oc3ccccc23)cc1", "inhibition": "1.88%"}, {"molecule": "Cc1nc(-c2cccc(S(=O)(=O)N3CCC(C(=O)NCc4ccccc4)CC3)c2)no1", "inhibition": "25.1%"}, {"molecule": "Cc1cc(=O)n2nc(N3CCC(C(=O)NCc4ccccc4Cl)CC3)sc2n1", "inhibition": "5.3%"}, {"molecule": "Cc1ccccc1NC(=O)CCc1c(C)nc2c(c1C)c(=O)n(C)c(=O)n2C", "inhibition": "-7.13%"}, {"molecule": "CCCN(C(=O)Cn1cnc2sc(C)c(S(=O)(=O)N3CCN(c4ncccn4)CC3)c2c1=O)c1cccc(C)c1", "inhibition": "-6.4%"}, {"molecule": "COc1ccc(Cc2nnc(NC(=O)c3cc(OC)c(OC)c(OC)c3)s2)cc1OC", "inhibition": "active: 34.9%"}, {"molecule": "CCOC(=O)c1ccc(NC(=O)c2nsc3ccccc23)cc1", "inhibition": "-11.6%"}, {"molecule": "CN1CCc2nc3sc(C(=O)Nc4c(F)cccc4F)c(N)c3cc2C1", "inhibition": "3.15%"}, {"molecule": "C/C=C(\\C)CN1CCN(c2ccccc2)CC1", "inhibition": "active: 74.8%"}, {"molecule": "Cc1ccc(-c2cnc(NCc3c(F)cccc3Cl)n2C)cc1", "inhibition": "12.3%"}, {"molecule": "CCOc1ccc(NC(=O)Cn2c(=O)c(CNc3ccc(OC)cc3)cc3ccc(OC)cc32)cc1", "inhibition": "2.31%"}, {"molecule": "CCOC(=O)c1cc(S(=O)(=O)N2CCN(c3cc(Cl)ccc3C)CC2)[nH]n1", "inhibition": "16.5%"}]}]}
